Measurements published in PubChem BioAssay AID488969 (Vanderbilt High Throughput Screening Facility, 2010).
The full ranking holds about 110,000 compounds; the median of “z-score” is about -0.1, and the highest 2% start at about 2. The list shows a part of the results. Calls of active or inactive are those of the source.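 The calls were made as follows: active = z-score in the third read window above 3 or below -3; inactive = the rest.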

Each molecule was assayed against Metabotropic glutamate receptor 8 (Rattus norvegicus) (UniProt P70579) (assay: rat mGluR8 modulators via GIRK flux, primary screen, cell-based, thallium flux, HTS (AID 488969)). Details: HEK293 rat mGluR8, GIRK (G protein-gated inwardly rectifying potassium channel) thallium flux, FluoZin2; at 10 µM; stronger effect = higher value; submaximal glutamate (EC20) added with thallium.
Chain of UniProt P70579 (P70579 whole entry, looked up): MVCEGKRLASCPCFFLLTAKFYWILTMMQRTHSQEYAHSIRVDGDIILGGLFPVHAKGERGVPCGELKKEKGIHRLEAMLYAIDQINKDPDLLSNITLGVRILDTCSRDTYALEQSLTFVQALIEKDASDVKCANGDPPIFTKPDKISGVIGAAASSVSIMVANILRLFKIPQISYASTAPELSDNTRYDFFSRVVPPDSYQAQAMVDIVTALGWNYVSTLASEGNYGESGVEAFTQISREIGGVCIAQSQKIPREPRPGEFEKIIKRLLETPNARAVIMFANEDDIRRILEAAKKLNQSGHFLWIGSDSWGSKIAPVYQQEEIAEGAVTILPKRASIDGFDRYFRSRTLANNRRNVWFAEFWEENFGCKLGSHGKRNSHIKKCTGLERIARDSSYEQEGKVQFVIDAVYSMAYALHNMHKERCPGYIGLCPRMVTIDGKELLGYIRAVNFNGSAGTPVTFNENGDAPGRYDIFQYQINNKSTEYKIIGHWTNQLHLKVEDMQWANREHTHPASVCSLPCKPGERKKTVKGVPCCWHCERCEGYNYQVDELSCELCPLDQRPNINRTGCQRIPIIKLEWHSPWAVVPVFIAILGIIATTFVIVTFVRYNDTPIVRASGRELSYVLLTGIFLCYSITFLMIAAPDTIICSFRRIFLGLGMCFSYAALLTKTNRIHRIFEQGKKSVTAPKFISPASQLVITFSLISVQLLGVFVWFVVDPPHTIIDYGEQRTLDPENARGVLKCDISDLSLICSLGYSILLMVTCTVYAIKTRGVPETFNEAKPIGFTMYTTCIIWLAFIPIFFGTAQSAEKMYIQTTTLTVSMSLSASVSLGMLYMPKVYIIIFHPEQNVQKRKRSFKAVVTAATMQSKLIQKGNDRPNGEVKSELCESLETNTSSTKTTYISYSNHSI

Compound | z-score
Cc1ccnc(NC(=O)c2cccs2)c1 | -0.306
O=S(=O)(c1ccc(Oc2ccc(Cl)cc2)c(S(=O)(=O)N2CCCCC2)c1)N1CCCCC1 | -0.278
Cn1c(C(=O)N2CCN(Cc3ccc4c(c3)OCO4)CC2)cc2c(=O)n(C)c3ccccc3c21 | -0.512
COc1cc(OC)c(C2=NOC(C(=O)N3CCc4ccccc4C3)C2)cc1Cl (stereo unspecified) | -0.587
Cc1cccc(C)c1N1C(=O)CC(N(O)c2ccccc2)C1=O (stereo unspecified) | -0.0986
Cn1c(NC(=O)CCc2ccccc2)cc(=O)n(C)c1=O | -0.492
Cn1c(-c2ccc(-c3ccccc3)cc2)c[nH]c1=S | active: 4.21
Cn1c(=O)n(Cc2ccccc2)c(=O)c2c1nc1n2CCCN1CCc1ccccc1 | -1.53
O=C(c1ccccc1)N1CCCC(C(=O)N2CCc3ccccc3C2)C1 (stereo unspecified) | -1.49
O=C(N/N=C/c1cccc(OC2CSC2)c1)c1ccccc1O | -0.125
COc1ccccc1NC(=O)c1cnc2n(c1=O)CCS2 | 1.09
CC(=O)C1=C(C)NC(C)=C(C(C)=O)C1c1cccs1 | -0.269
CCOC(=O)C1CCN(S(=O)(=O)c2ccc(Cl)cc2OC)CC1 | -0.0193
CSc1ccc(S(=O)(=O)NCc2ccc(C)cc2)cc1 | -0.724
Cc1cc(C)nc(SCc2csc(-c3ccccc3)n2)n1 | -0.101
CC(C)n1nc(C(=O)Oc2cccc(Cl)c2Cl)c2ccccc2c1=O | -0.0207
O=C(CSc1ccc2ccccc2c1)Nc1ncccn1 | 0.0799
COC(=O)CNC(=O)CCCCC(=O)NCC(=O)OC | -0.123
CCNC(=S)N(Cc1ccco1)Cc1cc2cc3c(cc2[nH]c1=O)OCCO3 | 0.158
Cn1cc(Br)c(C(=O)N2CCN(c3cccc(Cl)c3)CC2)n1 | 0.000721
CSc1nc2cc3c(cc2n1C(=O)c1ccc(C)cc1)OCCO3 | -0.0138
Cc1ccccc1-c1nc(S(=O)(=O)c2ccc(Br)cc2)c(NCc2cccnc2)o1 | -0.22
COC(=O)C1(C(F)(F)F)N=C2Sc3ccccc3N2C(N2CCOCC2)=N1 (stereo unspecified) | -0.255

Compound | z-score
Cc1ccc(S(=O)(=O)CCc2nc3ccccc3s2)cc1 | -0.0613
COc1ccc2c(c1OC)C(=O)c1ccccc1C2=O | 0.154
CN1CCN(S(=O)(=O)c2ccc(Sc3nc4ccccc4[nH]3)c3nsnc23)CC1 | 0.409
CCC(=O)N1CCN(c2nc(C)nc3sc(C)c(C)c23)CC1 | -0.295
COCCn1cc(C(=O)N2CCC(C)CC2)c2c3ccccc3n(C)c2c1=O | 0.278
CCCCc1ccc(NC(=O)N[C@H](C(=O)O)C(C)CC)cc1 (stereo partly specified) | 0.195
CCOC(=O)C1CCN(CCC(=O)Nc2ccccc2Cl)CC1 | -0.357
COC(=O)c1ccccc1NS(=O)(=O)c1ccc(F)cc1 | 1.24
COc1ccc(S(=O)(=O)N2CCCC(C(=O)NC3CCCCC3)C2)cc1 (stereo unspecified) | -0.893
Nc1nnc(Cc2ccc(Cl)cc2Cl)s1 | 0.276
CC(C)(C)c1ccc(OCC(O)CSc2ncn[nH]2)cc1 (stereo unspecified) | -0.0863
O=C(Nc1ccccc1)C12CC3CC(C1)CC(n1cnc([N+](=O)[O-])n1)(C3)C2 | -0.0536
CCOC(=O)C1=C(O)/C(=C/c2ccc(OCC(=O)O)c(OC)c2)SC1=Nc1ccc(OC)cc1 | -0.434
S=C(Nc1ccc(Cl)cc1)c1nc2ccccc2[nH]1 | active: 6.95
Cn1cccc1C(=O)NC(=O)CSc1nnc(C2CC2)n1-c1ccccc1 | -0.822
CC1=C(C(=O)Nc2ccc(F)cc2)C(c2ccncc2)C2=C(CCCC2=O)N1 (stereo unspecified) | 0.356
O=C(NC(=O)c1ccncc1)NC(c1ccccc1)c1ccccc1 | -0.156
Cc1[nH]c2ccccc2c1Cc1nnc(SCCC#N)o1 | -0.0224
Cc1ccccc1NC(=S)NCCC(c1ccccc1)c1ccccc1 | -0.309
C=C(C)COc1ccc(-c2nc(N)ncc2Oc2ccccc2OCC)c(O)c1 | 0.133
COc1ccc(C2N(c3ccc(Cl)cc3)C(=O)C3CCCN32)cc1 (stereo unspecified) | -0.0547
CC1CN(c2ccc(C(F)(F)F)cc2[N+](=O)[O-])CCN1S(C)(=O)=O (stereo unspecified) | -0.214
CCC(=NCCN1CCNCC1)C1=C(O)CC(C)(C)CC1=O | 0.198

Compound | z-score
Cc1ccc(N=Cc2c(O)n(-c3cc(Cl)ccc3N3CCOCC3)c(=O)c3ccccc23)cc1C | -0.575
C=CCN1C(=O)C(Cc2ccc(OC)cc2)SC1=Nc1ccc(C(=O)O)cc1 (stereo unspecified) | -0.251
CCCCCC(=O)NC(=S)Nc1ccc(N2CCCCC2)c(Cl)c1 | -0.183
C/C(N)=C(\C#N)C(=O)NCc1ccccn1 | 1.05
COc1ccc2sc(NC(=O)c3ccco3)nc2c1 | -0.509
Cc1ccc(C2CC(=O)Nc3c2ccc2ccccc32)cc1[N+](=O)[O-] (stereo unspecified) | -0.0483
O=C(Cn1nnc(-c2ccccc2)n1)NCc1ccccc1 | 0.748
CCOc1cc(N2CCOCC2)c(OCC)cc1NC(=O)CN1CCCC1 | 0.0453
COc1ccc(OCC(=O)Nc2cccc(NC(=O)COc3ccc(OC)cc3)n2)cc1 | 1.17
O=C(OCc1ccccc1)Oc1cncc(C(=O)O)c1 | 2.64
O=C(CCCN1C(=O)c2ccccc2C1=O)Nc1ccccn1 | -0.0505
O=C(CSc1nnnn1-c1ccccc1)Nc1ncc(Cc2cccc(Cl)c2Cl)s1 | -0.174
O=C1NC(c2ccccc2)=C(c2ccc3ccccc3n2)C(c2ccc(F)cc2)N1 (stereo unspecified) | 0.277
COc1ccc(/C=N/NC(=O)c2ccoc2C)cc1OC | -0.107
COc1cc(S(=O)(=O)N2CCCCC2)ccc1NC(=O)Cc1ccccc1 | -0.203
CC(C)CC(=O)O/N=C1\C(=O)N(Cc2ccc(Cl)cc2)c2ccc([N+](=O)[O-])cc21 | -0.196
O=C(O)CCC(=O)Nc1ccc(OCC(=O)O)cc1 | 0.144
COC(=O)c1ccc(COC(=O)CCc2nc(-c3ccccc3)c(-c3ccccc3)o2)cc1 | -0.074
O=S1(=O)CCC(NC(=S)N2CCCCCC2)C1 (stereo unspecified) | -0.138
Cc1cc(N=CC2=C(O)CC(C)(C)CC2=O)no1 | 0.425
NC(=S)N/N=C/c1ccccc1OCc1cccc(Cl)c1 | -0.0335
CC(=O)NCCOc1nc(N(C)C)nc(N(C)C)n1 | -0.242
C=CCN(CC=C)C(=O)c1cc(Cl)ccc1[N+](=O)[O-] | -0.225

Compound | z-score
CCN(CC)c1ccc2cc(-c3nnc(-c4ccncc4)o3)c(=O)oc2c1 | -1.17
CCC/C=N/NC(=O)c1[nH]c2c([N+](=O)[O-])cccc2c1C | 2.02
CCOC(=O)C1=C(CSCC(=O)OC)NC(=O)NC1c1cc(C)ccc1C (stereo unspecified) | -0.26
CN1CC(c2ccc(C#N)cc2)C2(COc3ccccc3C2=O)C12C(=O)Nc1ccccc12 (stereo unspecified) | -0.214
Cc1noc(C)c1COc1cccc(C(=O)NCc2ccccc2Cl)c1 | -0.768
COc1ccc(-c2oc(NC(=O)CSc3ncn[nH]3)c(C#N)c2-c2ccc(OC)cc2)cc1 | -0.566
CC1(C)CC(=O)C(C=Nc2cccc(/N=C/C3=C(O)CC(C)(C)CC3=O)n2)=C(O)C1 | 0.119
COC(=O)C1=NN(c2ccccc2OC)C2C(=O)N(c3ccccc3OC)C(=O)C12 (stereo unspecified) | -0.137
COc1ccc(C(c2nnnn2Cc2ccccc2)N2CCN(c3nc4ccccc4s3)CC2)cc1OC (stereo unspecified) | -0.223
O=C(Nc1ncccc1Cl)C1COc2ccccc2O1 (stereo unspecified) | -0.0655
Cc1ccc(SCc2cc(=O)[nH]c(N3CCOCC3)n2)cc1 | -0.636
COc1cccc(NC(=O)C2C3C=CC4(O3)C2C(=O)N(C2CC2)C4C(=O)NC2CCCCC2C)c1 (stereo unspecified) | -0.0656
Cc1sc(NC(=O)C2C3CCC(C3)C2C(=O)O)c(C(N)=O)c1-c1ccc(C(C)(C)C)cc1 (stereo unspecified) | 1.58
O=C(Cc1ccccc1F)Nc1ccc(SC(F)F)cc1 | -0.252
Cc1nnc(N2C(=O)C(O)=C(C(=O)c3ccco3)C2c2ccc(F)cc2)s1 (stereo unspecified) | -1.8
O=c1oc2ccccc2n1CCn1c2ccccc2c2nc3ccccc3nc21 | 0.0202
CC(C)(C)OC(=O)NNC(=S)NCc1ccc(Cl)cc1 | -0.208
Cc1ccccc1C(O)c1ccccn1 (stereo unspecified) | -0.0885
CCC(C)(C)NC(=O)C(c1ccc(C)cc1)N(Cc1cccs1)C(=O)c1ccc2c(c1)OCCO2 (stereo unspecified) | -0.522
COc1ccc(-c2ncc3ccccn23)cc1OC | -0.266
Cc1ccc(C)n1-c1ccncc1 | 0.151
CC1=C(C(=O)Nc2ccccc2)C(c2ccco2)C(C#N)=C(SCc2ccccc2)N1 (stereo unspecified) | -0.138
COc1cc(CNc2ccc3[nH]c(=O)[nH]c3c2)cc(Br)c1OCC(=O)NC(C)(C)C | -0.442

Compound | z-score
Cc1cccc(N2CCN(C(=O)Cc3cn(C)c4ccccc34)CC2)c1C | -0.0564
CCS(=O)(=O)c1ccc(C(=O)Nc2cccc(Cl)c2)c(Cl)c1Cl | -0.531
CCn1nccc1C(=O)Nc1ccc(Cl)c(Cl)c1 | -0.202
O=C(O)c1ccc2cccc(Cl)c2c1O | -0.126
c1nnc(NC2=NCCC2)s1 | 1.04
O=C(c1ccc(=O)oc1)N1CCCc2ccccc21 | 0.021
CCN(CC)c1ccc(NC(=O)Nc2cccc(C(C)=O)c2)cc1 | 0.62
Cc1ccc(N(CC(=O)N/N=C/c2cccs2)S(C)(=O)=O)cc1Cl | 0.481
CCOC(=O)c1c(NC(=O)c2nn(CC)cc2Br)sc2c1CCCCC2 | -0.179
CCc1cccc(CC)c1NC(=O)COC(=O)c1cccc(-c2ccc(OC(C)=O)cc2)c1 | -1.91
Cc1nc(CCNC(=O)Cc2ccc(Cl)cc2)cs1 | 0.111
Cc1ccccc1-n1c(=O)c2ccccc2n2c(=O)[nH]nc12 | 0.413
COc1ccc(S(=O)(=O)N2CCC(C(=O)N3CCCCCC3)CC2)cc1 | -0.382
COc1ccc(-c2nc(-c3ccc(NC(=O)c4ccc(Br)o4)cc3)no2)cc1OC | -0.935
CC(O)c1nc2ccccc2n1Cc1ccc([N+](=O)[O-])cc1 (stereo unspecified) | -0.255
Cc1cccc(N(CC(=O)NCCC2=CCCCC2)S(C)(=O)=O)c1C | 0.0571
CC(NC(=O)NC1CCCCC1)C(c1cccs1)N1CCN(c2ccccc2)CC1 (stereo unspecified) | -0.774
C=CCn1c(CSc2nc3ccccc3s2)nnc1SCC(=O)OCC | -1.77
Cc1ccnc2c(N3C(=O)C4C5C=CC(C5)C4(C)C3=O)cccc12 (stereo unspecified) | 0.129
